# In PubChem BioAssay (NCATS):
# Several values for one entry are separate records, joined by “and”; a condition that tells them apart may be missing. Equal values may be shown once. The shares of active, inactive and inconclusive entries below differ from those in the screen. For some of these results: A potency beside an inconclusive call is a rough fit, not a confirmed value. Activity calls are given as the source filed them. Calls follow the shape of the dose curve; as a rule, active = well fitted curve in the direction sought with a large enough effect; inconclusive = small, poorly fitted or top-dose-only effect, or another doubt; inactive = no such curve, though single readings can be large; an effect the other way counts as inactive or inconclusive.
# Columns and labels:
# [1] = qHTS to identify inhibitors of the type 1 interferon - major histocompatibility complex class I in skeletal muscle: primary screen against the NCATS Pharmaceutical Collection (AID 1347407);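 also: luminescence of HiBiT knocked into endogenous HLA-B as interferon-induced MHC class I level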; also: potency is read from the fitted curve at half-maximal effect; as to activity change, negative = inhibition: % is scaled to controls: 0 for no effect and ±100 for the full control effect
# Method in brief: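 HLA-B HiBiT myoblasts, dexamethasone-free growth medium + 4 ng/ml IFN-b; compounds pinned 1 h after seeding, […] from 46 uM; 24 h, 37 C, 5% CO2; lytic HiBiT detection, 10 min RT, luminescence.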
# [2] = qHTS to identify inhibitors of the type 1 interferon - major histocompatibility complex class I in skeletal muscle: primary screen against the NCATS LOPAC collection (AID 1347405);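 also: lytic HiBiT luminescence reporting HLA-B protein level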; also: potency is read from the fitted curve at half-maximal effect; as to activity change, negative = inhibition: % is scaled to controls: 0 for no effect and ±100 for the full control effect
# Method in brief: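 Luminescence from HiBiT fused to endogenous HLA-B in CRISPR-engineered human myoblasts served as the read-out. Cells received 4.0 ng/ml IFN-beta plus compound (seven concentrations, 1:4.3 steps, highest 46 uM final) for 24 hrs before lytic detection.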
# [3] = molecular target: Calcium and integrin-binding protein 1 (Homo sapiens) (UniProt Q99828); assay: Validation qHTS for Identification of Calcium Integrin Binding protein 1 (CIB1) Competitor (AID 1508618); also: potency is read from the fitted curve at half-maximal effect
# Chain of UniProt Q99828 (Q99828 whole entry, looked up): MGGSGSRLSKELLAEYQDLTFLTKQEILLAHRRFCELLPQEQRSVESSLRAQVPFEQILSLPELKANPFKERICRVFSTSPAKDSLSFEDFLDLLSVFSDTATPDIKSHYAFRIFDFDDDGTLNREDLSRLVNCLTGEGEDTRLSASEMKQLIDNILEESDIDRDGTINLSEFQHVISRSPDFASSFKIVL
# Method in brief: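 Fluorescence polarization with 1 uM CIB1-GST and 100 nM FITC-alphaIIb peptide in HEPES pH 7.4, NaCl, 5 mM CaCl2, Tween20. Compounds at up to 114 uM final, preincubated with protein 15 min; read after 15 min more at RT.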
# [4] = Panc-1005 Cancer Cell Toxicity qHTS against the NCATS CANVASS Library (AID 1347349); details: Panc-1005 viability, CellTiter-Glo luminescence, 72 h; also: potency is read from the fitted curve at half-maximal effect; nearly all actives have a fitted effect of over 60% in size
# Method in brief: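 1000 cells/well seeded and rested 4 h at 37 °C before pin transfer of compounds in an 11-pnt series. Exposure 72 h at 37 °C/5% CO2; viability by CellTiter-Glo luminescence after 15 min at room temperature.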
# [5] = HEK-293 Cancer Cell Toxicity qHTS against the NCATS CANVASS Library (AID 1347355); details: HEK-293 viability, CellTiter-Glo luminescence, 72 h; also: potency is read from the fitted curve at half-maximal effect; nearly all actives have a fitted effect of over 65% in size
# Method in brief: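 Luminescent ATP read-out (CellTiter-Glo, 15min at room temperature) measures survival after cells face an 11-point compound series for 72 hours at 37 degrees C/5% CO2.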
# [6] = system: NAD(P)H diaphorase (Clostridium kluyveri); assay: Diaphorse counterscreen qHTS: Assay Interference Panel against the NCATS CANVASS Library (AID 1347362); details: Diaphorase enzyme, resazurin to resorufin fluorescence; also: potency is read from the fitted curve at half-maximal effect
# Method in brief: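 Clostridium kluyveri diaphorase in PBS + 0.01% Tween-20 preincubated 15 min with compounds. Resazurin and NADH then added for 5 min at room temperature in the dark; resorufin fluorescence read (ex 525, em 598).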
# [7] = MCF7 Cancer Cell Toxicity qHTS against the NCATS CANVASS Library (AID 1347369); details: MCF7 viability, ATP luminescence (CellTiter-Glo), 72 h; also: potency is read from the fitted curve at half-maximal effect
# Method in brief: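 Luminescent ATP signal (CellTiterGlo) served as the cytotoxicity read-out after MCF7 breast cancer cells had been incubated 72 hr at 37C with natural products in an 11-point titration.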
# [8] = qHTS for Antimalaria activity screened against the NCATS CANVASS Library (AID 1347380); also: potency is read from the fitted curve at half-maximal effect; nearly all actives have a fitted effect of over 40% in size; details: P. falciparum Dd2 growth, SYBR Green fluorescence, 72 h
# Method in brief: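 Dd2 strain, infected erythrocytes 2.5% Hct final / 0.3% parasitemia. 11-pt qHTS titration, 72 h, 37C, 5% O2, 5% CO2. Lysis buffer + SYBR Green, 18 h, fluorescence 485/535 nm.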
# [9] = qHTS for Activators of p53 Stress Response Pathway screened against the NCATS CANVASS Library (AID 1347388); details: p53RE-bla HCT-116, beta-lactamase reporter, 16 h; at 46.1 µM (top of the series); also: 0% is about no effect
# Method in brief: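 p53RE-bla HCT-116 cells (4000/well) were pre-incubated for 5 h, then treated with compound (11 points) for 16 h at 37C. After 2 h with CCF4, the 460/530 nm ratio gave reporter activation; CellTiter-Glo measured viability.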
# [10] = qHTS assay for small molecule disruptors of mitochondrial membrane potential screened against the NCATS CANVASS Library (AID 1347389); details: HepG2 mitochondrial membrane potential, m-MPI red/green ratio, 1.5 h; at 46.1 µM (top of the series); also: % is scaled to controls: 0 for no effect and ±100 for the full control effect; nearly all actives have a fitted effect of over 60% in size
# Method in brief: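 HepG2, 2,000 cells/well, attached overnight; compound 1 hr, 37C, 5% CO2; Mito-MPS dye 30 min, 37C; fluorescence 535 nm (monomer) and 590 nm (aggregate); decreased 590/535 ratio = depolarization.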
# [11] = qHTS for activators of Nrf2/ARE signaling pathway screened against the NCATS CANVASS Library (AID 1347391); details: ARE-bla HepG2, beta-lactamase reporter, 16 h; at 46.1 µM (top of the series); also: 0% is about no effect; nearly all actives have a fitted effect of over 60% in size
# Method in brief: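 Plate ARE-bla HepG2 cells at 2000/well and let them settle 5 h. Pin-transfer compounds in DMSO, incubate 16 h at 37C. Load CCF4 for 2 h at room temperature and read blue/green fluorescence.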
# [12] = qHTS for inhibitors of ER calcium dysfunction: SERCaMP assay screened against the NCATS CANVASS Library (AID 1347393); details: SH-SY5Y GLuc-SERCaMP secretion, thapsigargin, luminescence; also: potency is read from the fitted curve at half-maximal effect; nearly all actives have a fitted effect of over 40% in size
# Method in brief: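 SH-SY5Y GLuc-SERCaMP, 1000 cells/well, 4 h attach; cpd 16 h, 37C/5% CO2; thapsigargin (added as 6x 600 nM) 4 h; coelenterazine; luminescence. Reduced reporter release = ER Ca stabilization.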
# [13] = Viability qHTS for inhibitors of the SERCaMP assay screened against the NCATS CANVASS Library (AID 1347400); details: SH-SY5Y SERCaMP cells viability, CellTiter-Glo, 48 h; at 92.2 µM (top of the series); also: % is scaled to controls: 0 for no effect and ±100 for the full control effect; nearly all actives have a fitted effect of over 70% in size
# Method in brief: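 SH-SY5Y SERCaMP MJH297 cells, 1000/well; 4 h settle, 37C/5% CO2; pin-transferred cpds; 48 h; CellTiter-Glo lum. Pos ctrl bortezomib 0.0001 - 4.6 uM.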
# [14] = Primary qHTS for inhibitors of La Crosse Virus (LACV) - induced cell death in SH-SY5Y cells (AID 1508616); also: potency is read from the fitted curve at half-maximal effect;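 as to activity change: top concentration of the series differs between compounds; 0% = infected DMSO wells and 100% = uninfected DMSO wells; higher means more rescue of cells from virus-induced death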
# Method in brief: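 Protection against LACV-induced cell death is scored in SH-SY5Y cells exposed to compounds and virus (0.01 MOI) for 6 days. Data normalized to virus-infected DMSO wells and virus-free DMSO wells.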
# [15] = qHTS to identify inhibitors of the type 1 interferon - major histocompatibility complex class I in skeletal muscle: primary screen against the NCATS Mechanism Interrogation Plate v5.0 (MIPE) Libary (AID 1347411); details: iHSKM cells + IFN-b, HiBiT-tagged MHC-I luminescence, 24 h; activity change, negative = inhibition: at 45.8 µM (top of the series); also: nearly all actives have a fitted effect of over 65% in size; also: potency is read from the fitted curve at half-maximal effect;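 as to activity change, negative = inhibition: plate controls were vehicle for no effect and reference inhibitor for full effect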
# Method in brief: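 Luminescence from HiBiT-tagged endogenous HLA-B*08:01 served as the MHC class I read-out. CRISPR-engineered C25cl48 human myoblasts received 4.0 ng/ml IFN-beta plus compound for 24 hrs, with an 11-point, 1:3 series topping at 46 uM final.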
# Tags tell the direction and shape of the fitted curve.
compound,measurement,setting,value
COc1ccc(-c2nc3ccc(C4=NNC(=O)CC4C)cc3[nH]2)cc1 (stereo unspecified),Potency,[1],inactive
Cc1nc(Nc2ncc(C(=O)Nc3c(C)cccc3Cl)s2)cc(N2CCN(CCO)CC2)n1,Potency,[1],"inconclusive: 0.118 µM [inhibitor, full curve, poor fit]"
Clc1ccc(C(Cn2ccnc2)OCc2ccsc2Cl)c(Cl)c1 (stereo unspecified),Potency,[1],"inconclusive: 33.3 µM [inhibitor, single point]"
C[C@@H](NCCCc1cccc(C(F)(F)F)c1)c1cccc2ccccc12,Potency,[1],active: 26.4 µM
O=C(O)CSCC(=O)NC1CCSC1=O (stereo unspecified),Potency,[1],inactive
O=C1c2ccccc2-c2n[nH]c3cccc1c23,Potency,[2],"inconclusive: 25.1 µM [inhibitor, partial curve]"
same,Potency,[3],"inconclusive: 14.1 µM [inhibitor, full curve]"
O=C(O)C(O)Cc1ccc(O)c(O)c1 (stereo unspecified),Potency,[4],"inconclusive: 18.8 µM [cytotoxic, single point]"
same,Potency,[5],"inconclusive: 37.2 µM [cytotoxic, single point]"
same,Potency,[6],"inconclusive: 19.3 µM [inhibitor, partial curve]"
same,Potency,[7],"inconclusive: 37 µM [cytotoxic, single point]"
same,Potency,[8],"inconclusive: 0.0047 µM [cytotoxic, full curve]"
same,activation,[9],inactive: -4.81%
same,"activity change, negative = depolarization",[10],inactive: -8.22%
same,activation,[11],inactive: 8.41%
same,Potency,[12],"inconclusive: 54.3 µM [inhibitor, single point]"
same,"activity change, negative = cytotoxicity",[13],inactive: -8.37%
CC(=O)OCC(CCn1cnc2cnc(N)nc21)COC(C)=O,Potency,[1],"inconclusive: 23.6 µM [inhibitor, partial curve, poor fit]"
NC(=O)c1ccc2[nH]ccc2c1,Potency,[2],inactive
CC(C)NCC(O)c1ccc(NS(C)(=O)=O)cc1 (stereo unspecified),Potency,[2],inactive
COC1=C(OC)C(=O)C(CCCCCCCCCCO)=C(C)C1=O,Potency,[1],inactive
same,Potency,[14],inactive
NC12CC3CC(CC(C3)C1)C2,Potency,[2],inactive
CN(C)C(=O)C(CCN1CCC(O)(c2ccc(Cl)cc2)CC1)(c1ccccc1)c1ccccc1,Potency,[2],"inconclusive: 35.5 µM [inhibitor, single point]"
same,Potency,[1],inactive
same,Potency,[15],"inconclusive: 46.6 µM [inhibitor, single point]"
same,Potency,[14],"inconclusive: 891 nM [inhibitor, single point] and inconclusive: 6.31 µM [inhibitor, single point]"
C[C@@]1(C(=O)Nc2ccc(F)nc2)CCCN1c1nc(Nc2cc(C3CC3)[nH]n2)c2cccn2n1,Potency,[15],"inconclusive: 0.739 µM [inhibitor, full curve]"
CC(C)(OCc1nn(Cc2ccccc2)c2ccccc12)C(=O)O,Potency,[15],inactive
Clc1ccccc1C(c1ccccc1)(c1ccccc1)n1ccnc1,Potency,[2],"inconclusive: 39.8 µM [inhibitor, single point]"
same,Potency,[1],"inconclusive: 33.3 µM [inhibitor, single point]"
same,Potency,[15],"inconclusive: 41.5 µM [inhibitor, single point]"
same,Potency,[3],"inconclusive: 20 µM [inhibitor, partial curve, poor fit]"
CC1(C)C(=O)N(CCN2CCC(C(=O)c3ccc(F)cc3)CC2)c2ccccc21,Potency,[2],inactive
COc1cc(N2CCC(N3CCN(C)CC3)CC2)ccc1Nc1ncc(Cl)c(Nc2ccccc2S(=O)(=O)C(C)C)n1,Potency,[15],active: 18.6 µM
O=C(O)c1c(Cl)c(Cl)c(Cl)c(Cl)c1-c1c2cc(I)c(=O)c(I)c-2oc2c(I)c(O)c(I)cc12,Potency,[15],active: 8.29 µM
CC1(C)CCC(CN2CCN(c3ccc(C(=O)NS(=O)(=O)c4ccc(NCC5CCOCC5)c([N+](=O)[O-])c4)c(Oc4cnc5[nH]ccc5c4)c3)CC2)=C(c2ccc(Cl)cc2)C1,Potency,[15],inactive
OCCN1CCN(CCCN2c3ccccc3Sc3ccc(C(F)(F)F)cc32)CC1,Potency,[2],"inconclusive: 31.6 µM [inhibitor, single point]"
same,Potency,[15],"inconclusive: 11.7 µM [inhibitor, partial curve, poor fit]"
same,Potency,[14],"inconclusive: 1.12 µM [inhibitor, partial curve, poor fit]"
CC(C)C[C@H](NC(=O)[C@H](CCc1ccccc1)NC(=O)CN1CCOCC1)C(=O)N[C@@H](Cc1ccccc1)C(=O)N[C@@H](CC(C)C)C(=O)[C@@]1(C)CO1,Potency,[1],active: 0.0938 µM
same,Potency,[14],active: 0.355 µM
CN(C)C(=O)[C@H](O)[C@H](Cc1ccccc1)NC(=O)c1cc2cc(Cl)ccc2[nH]1,Potency,[2],inactive
same,Potency,[15],inactive
CCCCC[C@H](O)C=C[C@H]1[C@H](O)CC(=O)[C@H]1CC=CCCCC(=O)O,Potency,[1],"inconclusive: 13.3 µM [inhibitor, partial curve]"
same,Potency,[14],inactive
